Our source for the survival values is PubChem BioAssay AID463173 (ICCB-Longwood Screening Facility, Harvard Medical School, 2010).

Screen size: about 52,000 compounds; about 1,700 (3.3%) were called active. Cut-off read from the data, not from the text of the source: active = survival mostly below about 52% (no sharp cut-off); inactive = mostly above about 56%. This is one part of the list.

The subject of this assay is Wild type. Briefly: growth inhibition of S. aureus wild type versus tarO mutant, primary screen, teichoic acid synthesis inhibitors, RN4220, OD600 (AID 463173). To be noted: S. aureus RN4220 wild type/DeltatarO growth, OD600, 18 h, active compounds read low, screened at 18.75 µg/mL (by protocol).
In the case of `CCOc1ccccc1NC(=O)c1ccc(C(=O)Nc2ccccc2OCC)cc1`, the survival is inactive: 68%.

As for `CC1CCN(S(=O)(=O)N(C)C)CC1`, the survival is inactive: 112%.

On to `COc1ccc(C2=C(C(C)=O)Sc3nnc(-c4ccccc4)n3N2C(C)=O)cc1`, for which the survival was inactive: 76%.

`CC(=O)NCCNC(=O)c1ccc2c(=O)n(CCc3ccccc3)c(=O)[nH]c2c1`: the survival is inactive: 92%.

Turning to `Cc1ccc(-n2nc(C)c3c(C)c(CCC(=O)NCc4ccccc4Cl)c(C)nc32)cc1`, the survival is inactive: 82%.

In the case of `Fc1ccc(Cc2cn3cc(-c4ccc(F)cc4)nc3s2)cc1`, the survival was inactive: 70%.

For the compound `COc1cc(NC(=O)c2cc3cc4cc(OC)ccc4nc3o2)cc(OC)c1`, the survival was inactive: 70%.

For `Cc1ccc2[nH]c(=O)c(C(c3nnnn3C3CCCC3)N(C)C3CCCCC3)cc2c1` (centres undefined), the survival is inactive: 130%.

In the case of `CCOc1cc(C2NC(=O)c3c(sc4c3CCN(C)C4)N2)ccc1OC(=O)c1ccc(F)cc1` (centres undefined), the survival was inactive: 68%.

Consider `O=C(Nc1ccc(F)cc1F)c1cc(-c2ccc3c(c2)OCO3)on1`, for which the survival was inactive: 85%.

In the case of `Cc1ccc(CCNC(=O)c2ccc(CSc3nc4ccncc4n3Cc3ccc(F)cc3)cc2)cc1`, the survival is inactive: 139%.

Regarding `Cc1ccc(-n2nc(CO)c(C(=O)NC(C)c3ccccc3)n2)cc1C` (centres undefined), the survival is inactive: 84%.

For the compound `COC(=O)c1sc2ccccc2c1S(=O)(=O)N1CCN(c2ccc(C(C)=O)cc2)CC1`, the survival was inactive: 73%.

Turning to `CCC(C(=O)NCCc1ccc(SC)cc1)n1nc(C)c2c(C)n(-c3ccc(C)cc3)nc2c1=O` (centres undefined), the survival was inactive: 77%.

Take `COc1cc(C2CC(=O)N(CC(=O)Nc3ccccc3F)c3ccccc3S2)cc(OC)c1OC` (centres undefined): the survival was inactive: 83%.

As to `CC(=O)c1cc(-c2ccc(F)cc2)n(CCC(=O)NC2CCCCC2)c1C`, the survival is inactive: 95%.

For the compound `Cc1cccc(OCC(=O)Nc2cccc(-c3nc4ccccc4s3)c2)c1`, the survival was active: 5%.

Regarding `COC(=O)c1ccccc1NC(=O)CCc1c(C)nc2cc(-c3ccc(Cl)cc3)nn2c1C`, the survival was inactive: 69%.

On to `CC(C)CNc1cc(NC2CCCCC2)c2c3c(onc13)-c1ccccc1C2=O`, for which the survival was inactive: 95%.

`Cc1ccc(Cl)cc1N1CCN(C(=O)c2cn(C)c3ccc(S(=O)(=O)N4CCCCC4)cc3c2=O)CC1`: the survival was inactive: 77%.

`CC1(C)CC2CC(C)(CN2C(=O)Nc2ccccc2)C1` (centres undefined): the survival was inactive: 102%.

As to `COc1cccc(CNCc2c(C(=O)O)c(C)n(Cc3ccc(F)cc3Cl)c2C)c1OC`, the survival is inactive: 90%.

For the compound `O=C(Nc1ccc(F)c(F)c1)c1ccc(F)c(S(=O)(=O)N2CCC3(CC2)OCCO3)c1`, the survival was inactive: 76%.

Regarding `O=C(CC1N=C2c3ccccc3N=C(SCc3cccc(F)c3)N2C1=O)NC1CCCCC1` (centres undefined), the survival is inactive: 92%.

`CCSc1nc2sc3c(c2c(=O)n1-c1ccc(C)cc1)CCCC3`: the survival is active: 0%.

Consider `O=C(NC1CCCCC1)C(c1cccs1)N(Cc1ccco1)C(=O)C1COc2ccccc2O1` (centres undefined), for which the survival is inactive: 114%.

With `CSc1ccc(CCNC(=O)CCc2c(C)nc3c4cccnc4nn3c2C)cc1`, the survival was inactive: 82%.

On to `CC(C(=O)O)N1CCCCC1` (centres undefined), for which the survival was inactive: 106%.

In the case of `CCn1c(=O)n(CC2CCC(C(=O)NC(C)C)CC2)c(=O)c2sccc21` (centres undefined), the survival is inactive: 77%.

As to `COc1ccc2cc3c(N)nn(C(=O)c4ccc(F)cc4Cl)c3nc2c1`, the survival was inactive: 81%.

For the compound `COc1ccc(NC(=O)CSc2c(C(C)C)cnc3c2c(=O)n(C)c(=O)n3C)c(OC)c1`, the survival is inactive: 80%.

Regarding `Cc1cc(NC(=O)CN2CCC(O)CC2)nc2c1c(=O)oc1ccccc12`, the survival is inactive: 72%.

`COc1ccc(C(=O)NCC(c2ccc3c(c2)OCO3)N2CCN(C)CC2)cc1OC` (centres undefined): the survival was inactive: 128%.

As for `CCOC(=O)c1cc(CC)sc1NC(=O)COc1ccccc1C`, the survival is inactive: 119%.

`CCN1CCN(c2ncnc3c2cnn3-c2ccc(F)cc2)CC1`: the survival is inactive: 56%.

Take `CCOc1ccc(-n2c(SCC(=O)c3ccccc3)nc3c([nH]c4ccccc43)c2=O)cc1`: the survival was inactive: 129%.

In the case of `O=C(Nc1ccc(Cl)cc1)C1COc2ccccc2O1` (centres undefined), the survival was inactive: 114%.

With `COc1ccc(CC(=O)Nc2ccc(-c3nc4ccccc4s3)c(C)c2)cc1`, the survival was inactive: 69%.

As to `COc1ccc(NC(=O)c2ccc3oc(=O)c(S(=O)(=O)c4ccc(F)cc4)cc3c2)c(OC)c1`, the survival was inactive: 71%.

For the compound `CC(C)c1nc2sc3c(N4CCCCC4)ncnc3c2c2c1CCCC2`, the survival was inactive: 71%.

Consider `COC(=O)c1ccc(CSc2nc3ccncc3n2Cc2ccc(F)cc2)cc1`, for which the survival was inactive: 87%.

On to `CC1=CC(C)(C)N(CC(=O)c2ccccc2)c2ccc(C)cc21`, for which the survival is inactive: 109%.

In the case of `COCC(C)Nc1ncnc2c1cnn2-c1cccc(Cl)c1` (centres undefined), the survival was inactive: 99%.

Regarding `COc1ccc(C(=O)Oc2ccc(C3NC(=O)c4c(sc5c4CCN(C)C5)N3)cc2OC)cc1` (centres undefined), the survival was inactive: 77%.

On to `Cc1ccc(Cl)cc1N1CCN(C(=O)c2cc(S(=O)(=O)N3CCCCC3)cn2C)CC1`, for which the survival is inactive: 82%.

On to `CC(=O)c1ccc(NC(=O)COc2ccccc2-c2nc(-c3ccccc3)no2)cc1`, for which the survival is inactive: 89%.

Take `COCc1cc(C)nc2sc3c(c12)NC(c1ccccc1C(=O)O)N(c1ccc(OC)cc1)C3=O` (centres undefined): the survival is inactive: 85%.

Turning to `CCOC(=O)c1c(C)[nH]c(C)c1S(=O)(=O)NCC(=O)N1CCN(c2cc(Cl)ccc2C)CC1`, the survival was inactive: 123%.

As to `O=C(CCSCc1ccccc1Cl)N1CCN(c2ccc(F)cc2)CC1`, the survival was inactive: 53%.

For the compound `CC(Oc1ccccc1)C(=O)N1CCN(Cc2cc(=O)n3nc(-c4ccccc4Cl)sc3n2)CC1` (centres undefined), the survival is inactive: 94%.

Turning to `CCc1ccc(C(=O)c2cn(CC(=O)Nc3ccc4c(c3)OCCO4)c3ccc(C)cc3c2=O)cc1`, the survival was inactive: 84%.

In the case of `O=c1cc(CN2CCN(S(=O)(=O)c3ccccc3)CC2)nc2sc(-c3ccccc3Cl)nn12`, the survival is inactive: 71%.

As for `O=c1c2c3c(sc2n(Cc2cc(=O)n4ccccc4n2)c(=O)n1-c1ccccc1)CCC3`, the survival was inactive: 81%.

For the compound `Cc1ccc(C)c(NC(=O)c2nnn(CC(=O)Nc3cccc(C)c3C)c2N)c1`, the survival is inactive: 88%.

With `Cc1ccc(NC(=O)C(Cc2ccccc2)NS(=O)(=O)c2cccs2)cc1Cl` (centres undefined), the survival was inactive: 109%.

On to `CCn1c(/N=C/c2ccc(OC)cc2O)nc2ccccc21`, for which the survival was inactive: 106%.

With `O=C(CS(=O)(=O)c1nc(-c2ccc(Cl)cc2)cn1-c1ccccc1)Nc1ccc(F)cc1F`, the survival was inactive: 63%.

For `COc1ccccc1CNC(=O)CN1C(=O)c2cccnc2Oc2ccccc21`, the survival is inactive: 64%.

In the case of `CCC(=O)N(Cc1cc2ccc(C)cc2n2nnnc12)C1CCCCC1`, the survival is inactive: 105%.

As to `Cc1ccc(-c2noc(CSc3nnc(C)n3-c3ccc(C)cc3)n2)cc1`, the survival is inactive: 105%.

Turning to `COc1ccc(OCCSc2nc3ccccc3n2CC(=O)N2CCOCC2)cc1`, the survival was inactive: 83%.

As to `COc1ccc(NC(=O)CCCc2nnc3n(CCC(C)C)c(=O)c4sccc4n23)cc1Cl`, the survival is inactive: 83%.

Turning to `CCOc1ccc(CNC(=O)C2CCN(C(=O)c3sccc3-n3cccc3)CC2)cc1`, the survival was inactive: 77%.

For `Cc1ccc(-n2c(SCCC(C)C)nc3sc4c(c3c2=O)CC(C)(C)OC4)cc1`, the survival was inactive: 76%.

For the compound `CCC(=O)Nc1cc(C(F)(F)F)ccc1N1CCCC1`, the survival was inactive: 104%.

Take `CC(C)Oc1ccc(C(=O)N2CC(=O)Nc3ccc(F)cc3C2c2ccc(F)cc2)cc1` (centres undefined): the survival was inactive: 78%.

Take `CCOc1ccc(CNC(=O)CN2C(=O)C3CCCCN3c3ccc(C(=O)N4CCCC4)cc32)cc1` (centres undefined): the survival is inactive: 132%.

On to `CC1CCCCN1C(=O)C1CCCN(S(=O)(=O)c2ccccc2)C1` (centres undefined), for which the survival was inactive: 103%.

With `COCCNc1ncnc2onc(-c3ccc(F)cc3)c12`, the survival was inactive: 78%.

For the compound `COc1ccccc1CNC(=O)c1cc2cc(C)ccc2n1C`, the survival is inactive: 86%.

In the case of `O=C(Cn1c(C(=O)OCCO)cc2ccccc21)c1ccccc1`, the survival is inactive: 117%.

With `O=C(COc1ccccc1)NCC1COc2ccccc2O1` (centres undefined), the survival is inactive: 95%.

For `CN(C)c1cccc(C(=O)N2CCC(c3ccncc3)CC2)c1`, the survival is inactive: 72%.

For `COc1cc(CNc2ccc3[nH]c(=O)[nH]c3c2)cc(Br)c1OCc1ccc(F)cc1`, the survival is inactive: 117%.

`CCOC(=O)c1c(NC(=O)CSc2nccn2C)sc2c1CCCC2`: the survival is inactive: 125%.

As for `COc1ccc(Cn2ccc3nc(C)c(C(=O)N4CCN(c5cc(C)ccc5C)CC4)cc3c2=O)cc1`, the survival was inactive: 87%.

With `O=C(O)CCc1ccc(-c2cccs2)n1CC(=O)Nc1ccccc1C(F)(F)F`, the survival is inactive: 105%.

As for `O=C(CSc1nc(-c2ccccc2)nc2c1CCCC2)c1ccc(Cl)cc1`, the survival was inactive: 73%.

For the compound `CCOc1ccc(CNC(=O)c2cnc3sc(N4CCCCCC4)nn3c2=O)cc1OC`, the survival is inactive: 89%.

On to `Cc1ccc(S(=O)(=O)c2nc(S(=O)(=O)c3ccc(C)cc3)c(NC(C)C)s2)cc1`, for which the survival is inactive: 91%.

Take `Cc1ccc(C)c(NC(=O)Cn2c(=O)n(Cc3ccc4c(c3)OCO4)c(=O)c3ccc(C(=O)NC4CCCCC4)cc32)c1`: the survival is inactive: 88%.

For `CCc1cccc(C)c1NC(=O)C(CC)n1ncn2c(cc3cc(C)ccc32)c1=O` (centres undefined), the survival was inactive: 93%.

Take `CCCN(C(=O)c1sc2nc3n(c(=O)c2c1C)CCCC3)c1ccccc1C`: the survival was inactive: 80%.

Take `Cc1ccc2c(c1)CC(C)N2S(=O)(=O)c1nnc(NC(=O)C(C)C)s1` (centres undefined): the survival was inactive: 81%.

Consider `Cc1cccc(NC(=O)C2CCN(S(=O)(=O)c3ccc4c(c3)CCCC(=O)N4)CC2)c1`, for which the survival is inactive: 100%.

Consider `CCCNC(=O)C1CCC(Cn2c(=O)c3sccc3n(CC(=O)Nc3ccccc3C)c2=O)CC1` (centres undefined), for which the survival is inactive: 66%.

Regarding `CC(=O)Nc1ccc(S(=O)(=O)N2CCC(NC(=O)Nc3cccc(F)c3)CC2)cc1`, the survival is inactive: 99%.

With `CCOc1ccc(CCNC(=O)c2sc3ncccc3c2-n2c(C)ccc2C)cc1`, the survival is inactive: 124%.

As for `CCc1noc(-c2ccc(N(C)Cc3ccc(OC)cc3)c([N+](=O)[O-])c2)n1`, the survival was inactive: 82%.
